Whole data set: some 110,000 compounds, median “z-score” near -0.1, cut for the highest 2% near 2. The list shows a part of the results. Activity calls are given as the source filed them.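 The calls were made as follows: active = z-score in the third read window above 3 or below -3; inactive = the rest.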
Molecular target: Metabotropic glutamate receptor 8 (Rattus norvegicus) (UniProt P70579)
Test: mGluR8 Gi/Go-coupled signaling modulation – cell-based, rat, thallium flux, HTS, primary screen (AID 488969)
Settings: HEK293 rat mGluR8, GIRK (G protein-gated inwardly rectifying potassium channel) thallium flux, FluoZin2; at 10 µM; stronger effect = higher value; submaximal glutamate (EC20) added with thallium

Chain of UniProt P70579 (P70579 whole entry, looked up): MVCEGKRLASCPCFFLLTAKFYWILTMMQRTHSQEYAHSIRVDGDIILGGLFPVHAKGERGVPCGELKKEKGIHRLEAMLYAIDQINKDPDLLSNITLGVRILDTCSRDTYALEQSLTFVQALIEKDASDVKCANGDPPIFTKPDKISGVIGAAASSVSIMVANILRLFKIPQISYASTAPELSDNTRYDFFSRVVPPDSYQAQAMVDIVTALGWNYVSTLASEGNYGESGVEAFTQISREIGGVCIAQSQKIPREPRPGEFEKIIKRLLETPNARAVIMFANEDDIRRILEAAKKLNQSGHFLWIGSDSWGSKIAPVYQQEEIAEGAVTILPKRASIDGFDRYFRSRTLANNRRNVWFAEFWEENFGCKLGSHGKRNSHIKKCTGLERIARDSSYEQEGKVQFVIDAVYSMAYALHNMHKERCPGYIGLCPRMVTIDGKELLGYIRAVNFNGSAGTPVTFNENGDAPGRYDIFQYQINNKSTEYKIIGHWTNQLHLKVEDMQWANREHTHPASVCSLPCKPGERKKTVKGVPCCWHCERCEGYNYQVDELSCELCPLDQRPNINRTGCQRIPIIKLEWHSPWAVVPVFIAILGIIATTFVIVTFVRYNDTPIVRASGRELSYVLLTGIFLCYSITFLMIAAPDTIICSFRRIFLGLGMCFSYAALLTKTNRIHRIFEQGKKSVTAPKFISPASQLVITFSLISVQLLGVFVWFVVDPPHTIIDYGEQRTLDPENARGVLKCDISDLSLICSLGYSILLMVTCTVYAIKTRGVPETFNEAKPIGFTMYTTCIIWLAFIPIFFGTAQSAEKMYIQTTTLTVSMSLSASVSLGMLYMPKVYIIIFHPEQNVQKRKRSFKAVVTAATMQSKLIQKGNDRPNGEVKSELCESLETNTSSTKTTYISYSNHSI

Row | SMILES | z-score
1 | COc1ccc(C2CC(c3cccs3)=Nc3ccccc3S2)cc1 (stereo not given) | -0.0545
2 | CCC1(C)Cc2ccccc2-c2nc(NCCO)n(-c3ccccc3)c(=O)c21 (stereo not given) | -0.125
3 | CCCn1nnc(NC(=O)c2ccco2)n1 | 1.49
4 | CNC(=O)/C(C#N)=C\c1ccc(CNS(=O)(=O)c2ccccc2)o1 | 0.0288
5 | CC(NC(=O)c1ccccc1Br)c1ccc2c(c1)CCCC2 (stereo not given) | -0.0813
6 | O=[N+]([O-])c1ccc(Oc2ccc(-c3cnc4ccccc4n3)cc2[N+](=O)[O-])cc1 | 0.399
7 | CC1CCc2nc(NCCO)nc(C(F)(F)F)c2C1 (stereo not given) | -0.418
8 | Cc1occc1C(=O)NCCCCc1ccccc1 | -1.1
9 | Cc1ccc(NC(=O)NCCCN2CCOCC2)cc1 | 0.587
10 | CC(C)CC1NC(=O)N(CC(=O)N2CCN(S(=O)(=O)c3ccc(Cl)cc3)CC2)C1=O (stereo not given) | 0.0362
11 | COc1cc(/C=N/NC(=O)c2ccc3ccccc3c2)ccc1Oc1ccc([N+](=O)[O-])cn1 | -0.174
12 | COc1ccc(CNC(=O)C2CCN(S(=O)(=O)c3c(C)n[nH]c3C)CC2)cc1 | -0.115
13 | Cn1c(Cl)cnc1C1CC(=O)c2cc(Cl)ccc2O1 (stereo not given) | -1.23
14 | CCOC(=O)CCNC(=O)Nc1ccc2nc(C)n(Cc3ccccc3Cl)c(=O)c2c1 | -0.545
15 | Cc1cc(C)c2nc(SCC(=O)Nc3ccccc3N3CCOCC3)c(C#N)cc2c1 | -0.337
16 | O=c1[nH]c2sc3c(c2c2nncn12)CCCC3 | -2.58
17 | COc1cc(NC(=O)c2ccc(COCC(F)(F)F)o2)cc(OC)c1OC | 2.1
18 | CC1CC(C)CN(Cc2nc(N)nc(Nc3ccccc3)n2)C1 (stereo not given) | 0.639
19 | Cc1nc2ccc(S(=O)(=O)NC(C(=O)NC3CCCC3)C(C)C)cc2s1 (stereo not given) | -0.0248
20 | COc1ccc(CN(C(=O)c2ccco2)c2ccccc2)cc1 | -0.0646
21 | COC(=O)c1ccccc1NC(=O)c1cccc(NC(=O)CSCc2ccccc2)c1C | -0.0727
22 | CS(=O)(=O)N(CC(=O)N1CCN(c2ccccc2)CC1)Cc1ccc(Cl)cc1 | 0.514

Row | SMILES | z-score
23 | CCOC(=O)c1cc2c(nc1NC(=S)NCc1ccccc1)CCCC2 | 2.16
24 | Cc1nc2ccccc2n1CCc1nc2c3ccccc3nc(SCC(=O)NCc3ccco3)n2n1 | -0.309
25 | CCCCC(Nc1ncnc2ccccc12)C(=O)O (stereo not given) | 0.328
26 | C=Cn1cc[n+](CC(=O)C(C)(C)C)c1 | -0.157
27 | CC(=O)c1cccc(NC(=O)C2CCCC2)c1 | 0.949
28 | Cc1cccc(NC(=O)Cc2cccs2)n1 | -0.58
29 | Cc1cc(/C=N/NC(=O)Cn2c3ccccc3c(=O)c3ccccc32)c(C)n1-c1ccccc1 | -0.369
30 | CC(C)(C)Cc1nnc(NC(=O)c2ccc([N+](=O)[O-])cc2)s1 | -0.0976
31 | CCN(C(=O)c1c(-c2ccccc2)noc1C)c1ccccc1 | 1.03
32 | Cc1ccc(N2C(=S)N=C(Nc3ccccc3C)C23CCOC(C)(C)C3)cc1 (stereo not given) | active: 15
33 | COc1ccccc1/C=C(/C(=O)OCC(=O)Nc1ccc(N(C)C)cc1)c1ccccc1 | 1.94
34 | O=C(Nc1nc2c(cc3c4c(cccc42)CC3)s1)c1ccccc1Cl | 0.225
35 | Cn1nc([N+](=O)[O-])nc1Oc1ccc(C(C)(C)C)cc1 | -0.168
36 | CCNC(=O)COc1cccc(C(=O)NCc2ccccc2)c1 | -0.426
37 | O=C(OC(C(=O)NCC1CCCO1)c1ccccn1)c1cccs1 (stereo not given) | -0.516
38 | O=C(Nc1ccccc1)N1CCN(c2cccc(C(F)(F)F)c2)CC1 | 0.000131
39 | O=C(C/C=N/OCc1ccc(F)cc1Cl)c1cnc(-c2ccccc2)s1 | -0.246
40 | COc1ccc(C(=O)N2CCN=C2SCc2cccnc2)c(OC)c1 | -0.299
41 | Oc1ccc(Nc2nc(-c3ccc4ccccc4c3)cs2)cc1 | 0.12
42 | CCc1nnc(NC(=O)c2cccc(S(=O)(=O)N3CCc4ccccc43)c2)s1 | 0.645
43 | CCCCOC(=O)c1c(C)oc2ccc(NS(=O)(=O)c3ccc4c5c(cccc35)C(=O)N4)cc12 | -0.062
44 | O=C(c1nsnc1-c1ccccc1O)N1CCCCC1 | -0.155

Row | SMILES | z-score
45 | CCCN(CC1CC1)C(=O)CSc1ncnc2sc(C)c(C)c12 | -0.46
46 | CCC(C)(C)C(=O)Nc1cc([N+](=O)[O-])ccc1F | -0.109
47 | Cc1ccc(-c2cc(-c3ccccc3)[nH]c(=S)c2C#N)cc1 | active: 3.09
48 | CN(CC(=O)Nc1ccc(S(=O)(=O)N2CCCC2)cc1)Cc1ccc(Cl)c(Cl)c1 | -0.389
49 | COc1cc2c(cc1NC(=O)c1cccnc1)CCCC2 | -0.195
50 | COc1ccc(OC)c(-n2c(-c3ccc(S(C)(=O)=O)cc3)cc(C=O)c2C)c1 | -0.307
51 | CCCn1nc([N+](=O)[O-])c(C(C#N)c2nc3ccccc3o2)c(Cl)c1=O (stereo not given) | -1.3
52 | Cc1cc2n(n1)C(c1ccccc1)Nc1ccccc1-2 (stereo not given) | -0.241
53 | CC(=O)OC[C@H]1O[C@@H](n2ccc(=O)[nH]c2=S)C(OC(C)=O)C1OC(C)=O (stereo not given in full) | 0.0751
54 | CCOC(=O)N1CCN(CC(O)COC2CC(C)CC(C)(C)C2)CC1 (stereo not given) | -0.675
55 | Cn1nc(C(F)(F)F)c(C(=O)Nc2cccc(Cl)c2)c1Cl | -0.116
56 | CCc1nc2c(c(SC)nn2-c2ccccc2)c(N)c1C(=O)OC | -0.0976
57 | Cc1ccc(S(=O)(=O)NC2=NCN(CCc3ccccc3)CN2)cc1 | 0.208
58 | Cc1cc(Cl)ccc1NC(=S)Nc1cccnc1 | 0.185
59 | O=c1cc(N2CCc3ccccc3C2)[nH]c(=O)n1-c1ccccc1Cl | -0.119
60 | Cc1ccc(C(=O)N2CCCC2)c(F)c1F | 0.434
61 | CCCCN(CC)CCCNC(=O)c1cc2c(=O)n(C)c3ccccc3c2n1C | 2.54
62 | O=C1c2cnccc2CN1Cc1ccccc1 | 0.167
63 | COC(=O)c1ccc2ncccc2c1 | 0.221
64 | CS(=O)(=O)Nc1ccccc1Oc1ccccc1 | 0.607
65 | C=CCN(CC=C)S(=O)(=O)c1ccc(NC(=O)COc2ccccc2OC)cc1 | -1.06
66 | Cc1csc(SCC(=O)NC2CCCCC2)n1 | 0.0512

Row | SMILES | z-score
67 | O=C1C2C(C(=O)N1/N=C/c1cc(Br)cc([N+](=O)[O-])c1O)C1C=CC2C12CC2 (stereo not given) | -0.105
68 | NNc1nnc(-c2ccccc2)c(-c2ccccc2)n1 | -0.209
69 | CCCCC(=O)/C=C/n1c(=S)oc2ccccc21 | 0.18
70 | CC(C)(C)c1ccc(C(=O)N/N=C2\C3CN4CCN(C3)CC2(c2ccccc2)C4)cc1 | -0.109
71 | CNC(=S)NN(c1ccccc1)c1ccccc1 | -0.0349
72 | CCOc1ccc(C2c3c(oc4ccccc4c3=O)C(=O)N2CCCN2CCOCC2)cc1OCC (stereo not given) | -0.261
73 | CSc1ncccc1C(=O)NCc1ccc(C)cc1 | -0.146
74 | CCn1c(SCC(=O)Nc2nccs2)nnc1-c1ccc(S(=O)(=O)N2CCCCC2)cc1 | -0.571
75 | C=CCNC(=S)NNc1ncnc2sc3c(c12)CC(C)(C)OC3 | -0.0467
76 | COC(=O)c1sccc1-n1cccc1C(=O)C(=O)N1CCCCC1 | 0.164
77 | O=C(CSc1nc2c(cnn2-c2ccc(F)cc2)c(=O)[nH]1)N1CCCc2ccccc21 | -1.11
78 | COc1ccc(-n2nnnc2SCC(=O)c2ccc(O)c(O)c2)cc1 | -0.311
79 | COc1ccc(-c2nnc(SCC(=O)N3CCCC(C)C3)o2)c(OC)c1 (stereo not given) | -0.551
80 | COc1ccc(/C=N/NC(=O)/C(=C/c2ccccc2)CCO)cc1 | -0.213
81 | CCOc1ccc(-n2c(SCC(N)=O)nc3c([nH]c4ccccc43)c2=O)cc1 | -0.659
82 | N#CC1=C(SCC(N)=O)NC2=C(C(=O)c3ccccc32)C1c1ccc(Cl)cc1 (stereo not given) | -0.209
83 | COc1ccc(Nc2nnc(SCC(=O)N3CCCC3)s2)cc1 | -0.123
84 | COc1ccc(N2CCN(Cc3ccc(Br)s3)CC2)cc1 | -0.248
85 | O=C(CN1CCCC1)N1c2ccccc2Sc2ccccc21 | -0.191
86 | CCCn1c(C)cc(C(=O)COC(=O)c2cc(S(=O)(=O)NCC(C)C)c(Cl)cc2Cl)c1C | -0.217
87 | COc1ccc(-c2cc(-c3ccc(OC)cc3)c(C#N)c(SC)n2)cc1 | -0.315
88 | CC(C)(C)N(Cc1ccccc1)C(=O)COC(=O)CCc1c[nH]c2ccccc12 | -0.439

Row | SMILES | z-score
89 | Cc1ccc(NC(=S)Nc2ccc3cn[nH]c3c2)cc1 | 0.244
90 | CC(C)NC(=O)N1CCN(c2ccncc2S(=O)(=O)N2CCOCC2)CC1 | 0.465
91 | C=C(C)COc1ccc(-c2n[nH]c(C)c2-c2ccc(Br)cc2)c(O)c1 | 0.114
92 | CCN1CCN(c2ccc(NC(=O)c3cccc4ncccc34)cc2)CC1 | -0.573
93 | CN(C(=O)CSc1nnc(-c2ccccc2)c(-c2ccccc2)n1)C1CCS(=O)(=O)C1 (stereo not given) | -0.261
94 | Cc1ccc2nc(-c3ccc(O)cc3)c(Nc3ccc4c(c3)OCCO4)n2c1 | -1.43
95 | Cc1cc(C)c2cc(CN(Cc3cccnc3)C(=O)c3ccc(F)cc3)c(Cl)nc2c1 | -0.319
96 | CN(C)S(=O)(=O)N1CCN(c2ccccc2)CC1 | -0.987
97 | Cc1cccc(C=Nc2ccccc2C(N)=O)c1 | 0.476
98 | Cc1c(C(=O)N2c3ccccc3Sc3ccccc32)cccc1[N+](=O)[O-] | 0.746
99 | CCOC(=O)c1sc(=S)n(CC)c1NC(=O)CC | 0.17
100 | COc1ccc(N2CCN(C(=O)C3CCCO3)CC2)cc1 (stereo not given) | -0.132
101 | Cc1c(Cl)c([N+](=O)[O-])nn1Cc1ccc(C(=O)N/N=C\c2cccc(Br)c2)o1 | -0.00818
102 | CCN(CC)C(=O)C1CCCN(C(=O)Nc2ccc(NC(=O)N3CCCC(C(=O)N(CC)CC)C3)cc2)C1 (stereo not given) | -0.196
103 | CCOC(=O)c1c(NC(C)=O)sc2c1CCC(C=O)=C2Sc1ccccc1 | -0.306
104 | O=C1c2ccccc2C(O)N1c1ccc(Cl)cc1 (stereo not given) | -0.698
105 | CCNc1oc(-c2ccc(OC)cc2)nc1S(=O)(=O)c1ccc(Br)cc1 | 0.0764
106 | COc1nnc(-c2ccc(N3CCOCC3)c(NC(=O)c3ccc(C)cc3)c2)c2ccccc12 | -0.0573
107 | O=C(O)[C@H](Cc1ccccc1)NC(=O)N1CCOCC1 | 0.842
108 | Cc1ccsc1/C=C(\C#N)C(=O)NCc1cccnc1 | -0.246
109 | Cc1ccc(C)c(SCC(=O)Nc2cc(C)nn2-c2ccc(F)cc2)c1 | -0.244
110 | COc1ccc(C(=O)O/N=C(\N)Cc2ccc(Cl)cc2)cc1OC | -0.494

From PubChem BioAssay AID488969 (Vanderbilt High Throughput Screening Facility, 2010)
